# The campaign covered roughly 310,000 compounds. About 11,000 (3.5%) were called active. The shares of active, inactive and inconclusive entries below differ from those in the screen. The call rests on the fitted dose curve; in most records, active means well fitted inhibition curve with a large enough effect; inconclusive means small, poorly fitted or top-dose-only effect, or effect the other way; inactive means flat fitted curve, though single readings scatter. No potency is given beside an inconclusive call; the fits are too rough.
# Assay: VP16 counterscreen qHTS for inhibitors of ROR gamma transcriptional activity;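 further: Gal4-VP16 expression switched on by copper sulfate through the metallothionein promoter; nearly all actives have a fitted effect of over 50% in size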
# Details: Drosophila S2 Gal4-VP16 UAS-luciferase, luminescence, 20 h; series mostly up to 53.6 µM
# Potency means the concentration at half of the fitted maximal effect; tags describe the fitted curve by direction and shape.
row,SMILES,Potency
1,CCOc1ccc2nc(N(CCCN(C)C)C(=O)c3ccc(S(=O)(=O)N4CCc5ccccc5C4)cc3)sc2c1,"inconclusive [inhibitor, single point]"
2,COc1ccc(CN2CCNC(=O)C2CC(=O)N2CCc3ccccc3C2)c(OC)c1 (stereo not given),inactive
3,COC(=O)N/N=C/c1cc(Br)ccc1O,"inconclusive [inhibitor, single point]"
4,Cc1ccc(N/C=C/C(=O)c2cccs2)cc1C,"inconclusive [inhibitor, single point]"
5,Cc1cccc(C(=O)NC(=S)N2CCN(C(=S)NC(=O)c3cccc(C)c3)CC2)c1,active: 0.794 µM
6,CC(=O)c1ccc(NC(=O)CCc2c(C)nn(-c3ccc(N4CCOCC4)nn3)c2C)cc1,"inconclusive [inhibitor, partial curve]"
7,CC12CCC(c3c1nc1ccccc1[n+]3[O-])C2(C)C (stereo not given),inactive
8,CCc1nnc(NC(=O)CSc2nnc(-c3ccc(NS(=O)(=O)c4ccccc4)cc3)o2)s1,"inconclusive [inhibitor, partial curve]"
9,O=C(OCc1ccc2c(c1)OCO2)c1ccc(S(=O)(=O)N2CCCCC2)cc1,inactive
10,NC(=S)N/N=C1\CC(n2nnn(-c3cccc(Cl)c3)c2=S)C2COC1O2 (stereo not given),"inconclusive [inhibitor, single point]"
11,CCc1sc(C(=O)N2CCc3ccccc32)cc1C,"inconclusive [inhibitor, single point]"
12,Cc1cccc(N2CCN(S(=O)(=O)c3ccc4c(c3)CCC(=O)N4)CC2C)c1 (stereo not given),"inconclusive [inhibitor, single point]"
13,Cc1ccc(S(=O)(=O)N2CCCC2C(=O)Nc2nc3c(s2)CCCC3)cc1 (stereo not given),"inconclusive [inhibitor, single point]"
14,C=CCN(CC=C)S(=O)(=O)c1ccc(NC(=S)NC(=O)C2CC2)cc1,"inconclusive [inhibitor, single point]"
15,COc1ccccc1CNCC(O)Cn1c2ccccc2c2ccccc21 (stereo not given),"inconclusive [inhibitor, single point]"
16,N#C/C(=C(/O)CN1C(=O)c2ccccc2C1=O)c1nc2ccccc2[nH]1,"inconclusive [inhibitor, single point]"
17,COC(=O)c1cc(OC)c(OC)cc1NCC(=O)Nc1cccc(C(F)(F)F)c1,inactive
18,COc1ccccc1/C=C/C=N/NC(=O)Cc1cccs1,"inconclusive [inhibitor, single point]"
19,CC(C)(C)NC(=O)NC(=O)CN1CCN(Cc2ccccc2)CC1,inactive
20,Cc1ccc(-c2nc(-c3ccncc3)no2)cc1,"inconclusive [inhibitor, single point]"
21,COc1ccc(Nc2nc(N)nc(CSc3nccc(C)n3)n2)cc1,"inconclusive [inhibitor, single point]"
22,COc1ccc2c(c1OC)C(=O)OC2Nc1nc(-c2ccc([N+](=O)[O-])cc2)cs1 (stereo not given),"inconclusive [activator, partial curve]"
23,CC(C)(C)c1ccc(-c2nnc(NC(=O)c3ccccc3)s2)cc1,"inconclusive [inhibitor, single point]"
24,CN(C)c1ccc(N/C=C/C(=O)C(C)(C)C)cc1,"inconclusive [inhibitor, single point]"

row,SMILES,Potency
1,CC(=O)NC(c1ccco1)c1ccc2cccnc2c1O (stereo not given),active: 11.2 µM
2,COC(=O)c1ccc(C2C(Oc3ccc(OC)cc3)C(=O)N2CCc2ccc(F)cc2)cc1 (stereo not given),"inconclusive [inhibitor, single point]"
3,CC(C)(C)CC(=O)Nc1ccc(Nc2ccccc2)cc1,inactive
4,CC(C)C[C@H](NC(=O)c1[nH]cnc1C(=O)N[C@@H](Cc1ccccc1)C(=O)OCc1ccccc1)C(=O)OC(C)(C)C,active: 15.8 µM
5,Cc1sc(N/N=C/C=C/c2ccccc2)nc1-c1ccccc1,"inconclusive [inhibitor, single point]"
6,CS(=O)(=O)N1CCC(C(=O)Nc2ccccc2Sc2ccccc2)CC1,active: 5.62 µM
7,O=C(Nc1nc2ccc(S(=O)(=O)N3CCCCC3)cc2s1)C1CCCO1 (stereo not given),inactive
8,COCCNC(=O)/C(C#N)=C/c1cc(C)n(C2CCCCC2)c1C,"inconclusive [activator, single point]"
9,Cc1ccc(O)c(C(=O)CC(=O)c2cccc(F)c2)c1,active: 7.08 µM
10,O=C(CNC(=O)c1ccccc1F)N/N=C\C=C\c1ccccc1,inactive
11,COc1ccc(-c2csc(NC(=S)NC(=O)c3ccco3)n2)cc1Br,"inconclusive [inhibitor, single point]"
12,O=C(/C=C/c1ccc2c(c1)OCCO2)c1ccccc1,"inconclusive [inhibitor, single point]"
13,CC(=O)c1ccc(N2CCN(C(=O)C(=O)c3cn(CC(=O)N4CCCCCC4)c4ccccc34)CC2)cc1,"inconclusive [inhibitor, single point]"
14,CCCCN=Cc1sc2ccc(OCC)cc2c1O,"inconclusive [inhibitor, single point]"
15,Cc1nc(-c2ccccn2)nc(SCC(=O)c2ccccc2)c1Cl,active: 11.2 µM
16,COc1cc(C)ccc1OCc1cc(C(=O)N(Cc2c(C)nn(C)c2C)C2CC2)no1,"inconclusive [inhibitor, single point]"
17,CCn1c2ccccc2c2cc(Nc3cc(C)nc4ncnn34)ccc21,"inconclusive [inhibitor, single point]"
18,Cc1nn(CCCC(=O)NCc2ccco2)c(=O)c2nn(-c3ccccc3)c(C)c12,inactive
19,COc1ccc(-n2c(=S)[nH]c3ccccc3c2=S)cc1,active: 0.708 µM
20,Cc1ccc(-c2[nH]ncc2CNCCc2cnn(-c3ccccc3)c2)cc1C,"inconclusive [inhibitor, single point]"
21,CC(C)CC(NC(=O)c1ccc(Cl)cc1)C(=O)OCC(=O)c1ccc2c(c1)NC(=O)CO2 (stereo not given),active: 7.08 µM
22,Cc1csc(NC(=O)CSc2nc3ccccc3c3c2CCCC3)n1,"inconclusive [inhibitor, single point]"
23,CCSc1n[nH]c(=S)s1,"inconclusive [inhibitor, single point]"
24,O=C(Cn1cnc2ccccc21)NCc1ccccc1,"inconclusive [inhibitor, single point]"

row,SMILES,Potency
1,CN(Cc1ccccc1)C(=O)c1ccccc1NC(=O)c1ccco1,"inconclusive [inhibitor, full curve, poor fit]"
2,CCOC(=O)c1ccc(OCCOc2cccc(C)c2)cc1,inactive
3,Cn1c(=O)cc(OCCCC(=O)NCc2ccco2)c2ccccc21,"inconclusive [activator, single point]"
4,Cc1ccc(-c2nn3c(C)nnc3s2)cc1NC(=O)CSc1ccc(Cl)cc1,"inconclusive [activator, single point]"
5,O=C1CCCN=C(Nc2ccc(F)c(Cl)c2)S1,"inconclusive [activator, single point]"
6,CCCCOc1ccc(/C=C/C(=O)OCC(=O)N2CC(=O)Nc3ccccc32)cc1OCC,"inconclusive [inhibitor, single point]"
7,COc1ccc(/C=C2\SC(=S)N(CCC(=O)NC3=NCCS3)C2=O)cc1OC,"inconclusive [inhibitor, single point]"
8,CCOC(=O)C1CCN(C(=O)c2ccc(OCC(=O)Nc3cccc(C(F)(F)F)c3)cc2)CC1,"inconclusive [inhibitor, single point]"
9,Cc1ccsc1/C=N/n1c(-c2ccncc2)n[nH]c1=S,"inconclusive [inhibitor, single point]"
10,O=C(N=Nc1c(O)[nH]c2ccccc12)c1cccs1,inactive
11,O=c1cc(C(F)(F)F)oc2c1ccc1ccccc12,inactive
12,CC(O)(c1ccc(Cl)cc1)c1ccc(Cl)cc1,"inconclusive [activator, single point]"
13,Cc1cccc(N2CCN(C(=O)CS(=O)(=O)Cc3nc(-c4ccccc4F)oc3C)CC2C)c1 (stereo not given),"inconclusive [inhibitor, single point]"
14,NC(=S)Nc1cc2ccccc2c2ccccc12,"inconclusive [inhibitor, single point]"
15,COC(=O)c1ccc(COC(=O)CNC(=O)CNC(=O)c2ccc(C)cc2)cc1,inactive
16,Cc1nn(C)cc1CNC(=O)Nc1ccc(Cl)c(Cl)c1,"inconclusive [inhibitor, full curve]"
17,Cc1ccsc1CN1CCC(C(=O)NCc2ccccc2Cl)CC1,inactive
18,S=c1[nH]nc(C2CCCCC2)n1/N=C/c1ccco1,"inconclusive [inhibitor, single point]"
19,Cc1ccc(CNC(=O)/C=C/c2ccc(Br)o2)cc1,"inconclusive [activator, single point]"
20,CC(=O)c1c(N2CCOCC2)nc(=S)n(Cc2ccccc2)c1C,"inconclusive [inhibitor, single point]"
21,CC1CCN(c2[nH]c(=S)c(C#N)c3c2CCCC3)CC1,"inconclusive [inhibitor, single point]"
22,COC(=O)c1cc(NC(=S)NCc2ccc(Cl)cc2)cc(C(=O)OC)c1,"inconclusive [inhibitor, single point]"
